Results are given in words; binding and its absence hold for the method and conditions named. In cells and extracts the contact can be indirect. Some results given as binding are weak or reduced against the parent protein; the word gives no strength. For part of these data: Tags and fused reporters may be left off the sequences shown.

Amino acid sequences for entries named in this document (tags omitted). A change or cut given only in a name is not applied to a line headed by its entry.
UniProt Q14839: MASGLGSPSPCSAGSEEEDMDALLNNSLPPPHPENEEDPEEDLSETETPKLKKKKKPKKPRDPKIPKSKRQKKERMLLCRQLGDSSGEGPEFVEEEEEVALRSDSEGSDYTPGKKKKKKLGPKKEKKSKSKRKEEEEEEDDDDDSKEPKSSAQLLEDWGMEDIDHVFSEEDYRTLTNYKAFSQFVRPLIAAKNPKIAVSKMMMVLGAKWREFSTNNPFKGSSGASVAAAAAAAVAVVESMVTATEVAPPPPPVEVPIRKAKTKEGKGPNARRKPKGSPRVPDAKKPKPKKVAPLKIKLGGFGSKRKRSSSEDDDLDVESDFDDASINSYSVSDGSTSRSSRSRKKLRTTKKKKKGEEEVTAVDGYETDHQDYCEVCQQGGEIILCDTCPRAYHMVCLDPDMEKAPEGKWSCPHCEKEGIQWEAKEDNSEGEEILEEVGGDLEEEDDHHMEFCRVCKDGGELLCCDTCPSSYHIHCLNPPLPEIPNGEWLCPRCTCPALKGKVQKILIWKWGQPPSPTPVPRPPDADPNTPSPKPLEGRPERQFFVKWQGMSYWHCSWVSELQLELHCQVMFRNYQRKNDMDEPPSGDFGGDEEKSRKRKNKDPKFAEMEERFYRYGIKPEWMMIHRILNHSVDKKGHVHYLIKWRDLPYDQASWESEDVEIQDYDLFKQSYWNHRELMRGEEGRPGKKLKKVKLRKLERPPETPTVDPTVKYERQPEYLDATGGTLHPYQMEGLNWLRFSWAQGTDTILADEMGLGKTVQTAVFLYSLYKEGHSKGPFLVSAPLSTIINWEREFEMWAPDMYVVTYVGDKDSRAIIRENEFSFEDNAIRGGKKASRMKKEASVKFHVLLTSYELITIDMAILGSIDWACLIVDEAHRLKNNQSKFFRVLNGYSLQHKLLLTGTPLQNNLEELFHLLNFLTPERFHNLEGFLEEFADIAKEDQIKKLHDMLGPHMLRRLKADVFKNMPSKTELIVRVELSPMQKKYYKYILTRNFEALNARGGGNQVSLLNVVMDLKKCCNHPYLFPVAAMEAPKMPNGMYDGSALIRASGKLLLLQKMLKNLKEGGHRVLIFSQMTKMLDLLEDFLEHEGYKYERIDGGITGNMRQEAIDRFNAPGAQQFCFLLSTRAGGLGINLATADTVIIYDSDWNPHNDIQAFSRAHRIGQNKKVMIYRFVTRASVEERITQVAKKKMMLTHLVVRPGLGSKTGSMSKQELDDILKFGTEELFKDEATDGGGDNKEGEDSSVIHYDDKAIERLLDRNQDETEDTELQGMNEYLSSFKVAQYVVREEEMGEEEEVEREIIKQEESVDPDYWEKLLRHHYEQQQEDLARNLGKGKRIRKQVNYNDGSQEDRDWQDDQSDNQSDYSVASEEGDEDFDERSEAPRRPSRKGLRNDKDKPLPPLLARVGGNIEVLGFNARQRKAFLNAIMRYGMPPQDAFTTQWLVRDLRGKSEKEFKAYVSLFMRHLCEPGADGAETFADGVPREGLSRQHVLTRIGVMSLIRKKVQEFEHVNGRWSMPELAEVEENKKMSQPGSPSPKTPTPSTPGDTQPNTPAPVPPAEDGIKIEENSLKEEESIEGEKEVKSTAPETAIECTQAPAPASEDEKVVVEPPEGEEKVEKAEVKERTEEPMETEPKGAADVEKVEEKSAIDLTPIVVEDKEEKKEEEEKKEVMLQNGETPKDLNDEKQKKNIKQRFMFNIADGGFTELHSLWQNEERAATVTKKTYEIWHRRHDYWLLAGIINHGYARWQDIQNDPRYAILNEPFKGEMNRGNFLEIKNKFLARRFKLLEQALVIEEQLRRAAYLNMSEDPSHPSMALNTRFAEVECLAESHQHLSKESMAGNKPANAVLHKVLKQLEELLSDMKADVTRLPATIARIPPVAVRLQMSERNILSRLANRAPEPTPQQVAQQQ
UniProt O75362: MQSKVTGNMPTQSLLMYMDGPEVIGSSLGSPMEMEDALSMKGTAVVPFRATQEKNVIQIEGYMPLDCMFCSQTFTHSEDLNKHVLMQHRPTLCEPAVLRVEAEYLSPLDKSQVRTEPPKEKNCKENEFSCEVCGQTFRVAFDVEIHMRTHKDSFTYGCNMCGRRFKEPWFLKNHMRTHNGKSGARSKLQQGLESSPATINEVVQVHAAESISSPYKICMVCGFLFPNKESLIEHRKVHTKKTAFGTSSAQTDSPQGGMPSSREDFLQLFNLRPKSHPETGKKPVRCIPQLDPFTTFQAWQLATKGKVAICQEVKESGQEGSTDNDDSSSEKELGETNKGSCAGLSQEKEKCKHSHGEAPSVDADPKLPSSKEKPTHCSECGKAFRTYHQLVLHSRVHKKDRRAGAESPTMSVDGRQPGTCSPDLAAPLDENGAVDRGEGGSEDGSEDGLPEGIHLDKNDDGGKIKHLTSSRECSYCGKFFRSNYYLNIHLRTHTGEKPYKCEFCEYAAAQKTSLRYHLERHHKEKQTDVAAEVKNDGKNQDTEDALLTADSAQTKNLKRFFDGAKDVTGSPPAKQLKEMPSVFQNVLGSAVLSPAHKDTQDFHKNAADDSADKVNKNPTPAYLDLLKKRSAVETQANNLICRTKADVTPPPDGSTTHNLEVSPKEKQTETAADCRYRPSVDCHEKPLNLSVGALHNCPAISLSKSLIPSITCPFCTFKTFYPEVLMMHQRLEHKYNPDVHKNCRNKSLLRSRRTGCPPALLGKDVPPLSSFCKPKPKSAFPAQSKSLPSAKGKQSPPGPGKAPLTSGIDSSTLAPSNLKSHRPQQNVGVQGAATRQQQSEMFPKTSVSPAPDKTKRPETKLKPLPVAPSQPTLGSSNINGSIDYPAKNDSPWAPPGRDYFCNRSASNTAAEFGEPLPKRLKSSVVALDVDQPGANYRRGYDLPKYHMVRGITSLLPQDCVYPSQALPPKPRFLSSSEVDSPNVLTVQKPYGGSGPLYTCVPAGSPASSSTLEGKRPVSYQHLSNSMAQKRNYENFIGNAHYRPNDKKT
UniProt Q8WXI9: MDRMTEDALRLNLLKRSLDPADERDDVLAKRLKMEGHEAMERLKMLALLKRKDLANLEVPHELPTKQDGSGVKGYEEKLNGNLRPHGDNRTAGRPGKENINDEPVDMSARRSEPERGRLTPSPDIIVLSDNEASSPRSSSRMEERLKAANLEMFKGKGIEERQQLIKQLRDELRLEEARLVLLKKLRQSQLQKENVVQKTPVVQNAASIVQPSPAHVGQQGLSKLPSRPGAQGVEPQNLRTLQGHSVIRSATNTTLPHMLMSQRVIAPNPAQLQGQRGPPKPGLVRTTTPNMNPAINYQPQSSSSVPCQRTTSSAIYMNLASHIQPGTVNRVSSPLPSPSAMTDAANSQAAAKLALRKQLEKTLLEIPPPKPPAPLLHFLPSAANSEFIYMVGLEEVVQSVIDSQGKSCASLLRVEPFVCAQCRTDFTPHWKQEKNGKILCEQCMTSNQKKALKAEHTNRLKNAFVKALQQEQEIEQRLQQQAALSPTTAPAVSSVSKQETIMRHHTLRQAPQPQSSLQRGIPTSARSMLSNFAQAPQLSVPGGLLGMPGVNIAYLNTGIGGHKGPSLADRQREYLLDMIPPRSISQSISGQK
UniProt Q92769: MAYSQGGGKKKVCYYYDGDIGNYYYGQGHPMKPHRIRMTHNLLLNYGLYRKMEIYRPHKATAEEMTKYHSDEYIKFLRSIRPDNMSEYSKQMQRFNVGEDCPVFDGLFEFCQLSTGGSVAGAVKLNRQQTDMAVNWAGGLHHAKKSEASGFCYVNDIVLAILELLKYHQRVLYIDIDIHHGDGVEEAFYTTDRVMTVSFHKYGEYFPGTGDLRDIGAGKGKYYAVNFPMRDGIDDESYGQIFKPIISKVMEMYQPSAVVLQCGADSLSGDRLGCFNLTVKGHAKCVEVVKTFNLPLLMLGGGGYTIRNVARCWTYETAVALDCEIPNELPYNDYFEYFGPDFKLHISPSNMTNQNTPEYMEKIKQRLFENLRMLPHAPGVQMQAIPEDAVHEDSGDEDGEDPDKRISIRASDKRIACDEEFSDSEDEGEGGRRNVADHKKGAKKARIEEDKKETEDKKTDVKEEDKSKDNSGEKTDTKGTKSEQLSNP

This passage reports binding results from PMC4063256.

For assay [1], the target named is Flag-HA-tagged CtBP2 (UniProt P56545). Description: co-IP; lysates of HeLa lines stably expressing FH-CtBP2 or FH-CtBP1 and of normal HeLa, untreated or treated with 10 uM etoposide for 6 hr; Flag antibody beads, 4°C 1 hr; Western blots of endogenous proteins. A general note: A western blot detects proteins with antibodies after separation by electrophoresis.
Assay [2] shares this target. Description: co-IP; data not shown; same analysis as the Flag co-IP from HeLa/FH-CtBP2 lysates, untreated or etoposide-treated.
Assay [3] has as its target CtBP2 mutant A58E (Flag-HA-tagged) (UniProt P56545). Description: co-IP; HeLa cells transiently transfected with Flag-HA-tagged CtBP expression constructs; Flag antibody beads; Western blots of endogenous cellular proteins.
For assay [4], the target named is K10R-CtBP2 mutant (Flag-HA-tagged) (UniProt P56545). The assay is described as above.
Assay [5] has as its target Flag-HA-tagged CtBP2 (UniProt P56545). The description is as above.
Assay [6] addresses endogenous CtBP2 (human (endogenous in A549)) (UniProt P56545). Description: co-IP; lysates of normal A549 cells and of A549 cells with CtBP1 & 2 double knock-down; immunoprecipitated with a CtBP2 antibody; Western blot with E2F7 antibody.
The target in assay [7] is CtBP2 mutant A58E (Flag-HA-tagged) (UniProt P56545). Description: co-IP; HeLa cells co-transfected with FH-tagged CtBP constructs and Myc-E2F7 constructs; lysate pre-incubated with 2 ug of a non-specific IgG (mouse monoclonal to luciferase); Flag antibody beads; Western blot.
Assay [8] concerns the target Flag-HA-tagged CtBP2 (UniProt P56545). The assay is described as above.

As for “Mi-2 protein (CHD4) (from UniProt Q14839 1-1912)”, the binding result in the assay with Flag-HA-tagged CtBP2 [1] was “binds”.

On to “Zinc finger protein 217 (from UniProt O75362 1-1048)”, for which the binding entry with Flag-HA-tagged CtBP2 [2] is “binds”.

On to “Transcriptional repressor p66-beta (from UniProt Q8WXI9 1-593)”, for which the binding result with Flag-HA-tagged CtBP2 [1] is on record as “binds”; in assay [3] it was “no binding”; in assay [4], “no binding”; with Flag-HA-tagged CtBP2 [5], “binds”.

For the molecule “Histone deacetylase 2 (from UniProt Q92769 1-488)”, the binding result with Flag-HA-tagged CtBP2 [1] is “binds”; in assay [3], “no binding”; with Flag-HA-tagged CtBP2 [5] it was “binds”.

B1: Transcription factor E2F7 (protein, UniProt Q96AV8 1-911)
chain: MEVNCLTLKDLISPRQPRLDFAVEDGENAQKENIFVDRSRMAPKTPIKNEPIDLSKQKKFTPERNPITPVKFVDRQQAEPWTPTANLKMLISAASPDIRDREKKKGLFRPIENKDDAFTDSLQLDVVGDSAVDEFEKQRPSRKQKSLGLLCQKFLARYPSYPLSTEKTTISLDEVAVSLGVERRRIYDIVNVLESLHLVSRVAKNQYGWHGRHSLPKTLRNLQRLGEEQKYEEQMAYLQQKELDLIDYKFGERKKDGDPDSQEQQLLDFSEPDCPSSSANSRKDKSLRIMSQKFVMLFLVSKTKIVTLDVAAKILIEESQDAPDHSKFKTKVRRLYDIANVLTSLALIKKVHVTEERGRKPAFKWIGPVDFSSSDEELVDVSASVLPELKRETYGQIQVCAKQKLARHGSFNTVQASERIQRKVNSEPSSPYREEQGSGGYSLEIGSLAAVYRQKIEDNSQGKAFASKRVVPPSSSLDPVAPFPVLSVDPEYCVNPLAHPVFSVAQTDLQAFSMQNGLNGQVDVSLASAASAVESLKPALLAGQPLVYVPSASLFMLYGSLQEGPASGSGSERDDRSSEAPATVELSSAPSAQKRLCEERKPQEEDEPATKRQSREYEDGPLSLVMPKKPSDSTDLASPKTMGNRASIPLKDIHVNGQLPAAEEISGKATANSLVSSEWGNPSRNTDVEKPSKENESTKEPSLLQYLCVQSPAGLNGFNVLLSGSQTPPTVGPSSGQLPSFSVPCMVLPSPPLGPFPVLYSPAMPGPVSSTLGALPNTGPVNFSLPGLGSIAQLLVGPTAVVNPKSSTLPSADPQLQSQPSLNLSPVMSRSHSVVQQPESPVYVGHPVSVVKLHQSPVPVTPKSIQRTHRETFFKTPGSLGDPVLKRRERNQSRNTSSAQRRLEIPSGGAD
Consider B1, for which the values for the binding entry (with Flag-HA-tagged CtBP2 [1]; in assay [3]; with Flag-HA-tagged CtBP2 [5]) were “binds”, “no binding” and “binds”, respectively.

B2: endogenous E2F7 (A549) (protein, UniProt Q96AV8 1-911)
chain: B1 chain
On to B2, for which the binding entry in assay [6] was “binds”.

B3: Myc-tagged E2F7 (mouse E2F7 clone) (protein, UniProt Q6S7F2 1-904)
chain: MEVNCLTLKDLISPRQTRLDFAIEDAENAQKENIFVDRSRMTPKTPMKNEPIDLSKQRIFTPDRNPITPVKPVDRQPQVEPWTPTANLKMLISAASPDIRDREKKKELFRPIENKEDAFVNSLQLDVAGDGAVDEYEKQRPSRKQKSLGLLCQKFLARYPSYPLSTEKTTISLDEVAVSLGVERRRIYDIVNVLESLHLVSRVAKNQYGWHGRHSLPKTLRTLQRLGEEQKYEEQMACLQQKELDLMGYRFGERRKDGSPDPRDPHLLDFSEADYPSSSANSRKDKSLRIMSQKFVMLFLVSKTKIVTLDVAAKILIEESQDTPDHSKFKTKVRRLYDIANVLTSLALIKKVHVTEERGRKPAFKWIGPVDFSSIDEELLDVSASILPELKKEAYGQIRVCAKERLVRYGSFNTVHTSEKIQRKVSSEPSSPQGERQGSAYSLEIGSLAAIYRQKVEDNSQEEAFVSNTAVPPASILDPALSMDSEYCVKPLAQPVFSVAQTDLPAFSAQNGPSGQVGVPVPSAASDTENLKPALLAGQPLVYVPSTQLFMLYGSVQEGLSPESRSEEDGGGSDVPADLSVTPSAQKRLCEERDPQEEEDEPAMKRQSQEFEDSPLSLVMPKKPSSSTDLACPVTMGNGSSPPLEDACVKGQLPAAEEVTGKAAPNCYVASECGNPARNPDTEKPSNENEITKDPSLMQYLYVQSPAGLNGFNMVLPGTQTPHTVAPSPAQLPSFGVPCMFLQSPGLGPFPVLYSPAIPGPISSAPGTHPNPGPMNFGLSTLASASHLLISPAAMVNPKPSTLPCTDPQLRCQPSLNLNPVMPGSHGVIHPESPCYVRHPVSMVKAEQSPAPATPKSIQRRHRETFFKTPGSLGDPVFRRKERNQSRNTSSAQRRLEISSSGPD
Consider B3, for which the binding entry in assay [7] is “no binding”; with Flag-HA-tagged CtBP2 [8] it was “binds”.
